Sequences with one replicate were seen in a single cluster, so their values are uncertain.
System: ATP
Test: switch fluorescence ratio, 500 uM ATP over buffer (Cy3 cluster intensity, sum of 5 cycles each) (fold (ratio)); higher = stronger signal-on switching upon ATP binding; sequences stand for … in TCGTCGGCAGCGTCAGATGTGTATAAGAGACAGTTTTTTTTTTTTTTTTTTTTTTTTT…TC
Conditions: aptamer strand: ATP DNA aptamer (quencher-CACCTGGGGGAGTATTGCGGAGGAAGG + anchor), 100 nM annealed; ATP concentration: 500 uM; one replicate
Summary of the method: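 Five buffer/ATP imaging cycles were run on Cy3-labelled switching-strand clusters on a modified Illumina MiSeq flow-cell, with NaOH stripping and re-annealing between cycles. In each cycle, clusters annealed to 100 nM quencher-labelled ATP aptamer were imaged in selection buffer, then after 15 min with 500 uM ATP at 22 °C. Per cluster, the fluorescence ratio is summed target-cycle over summed buffer-cycle Cy3 intensity, averaged per switch-domain sequence. Only clusters within 100-1000 RFU were kept.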
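Further: ATP exposure 15 min at 22 °C before imaging.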

Sequence | switch fluorescence ratio
GGTAGCGTAG | 1
TGTGTTGGA | 1.02
TAGTCGTTGG | 1.01
GGCGTACCCC | 1.04
TGCGGCCTGT | 0.986
CTGTGATGAT | 0.954
TTCAGTACTG | 1.03
GGGGTGCA | 1.04
CAATAGACTC | 1.05
TTATGCGATG | 0.959
GGGATCTCGT | 1.02
ATGTCTCATG | 0.999
GTGTATTATA | 0.999
AATGTGCTGA | 1
TGAGGGTCAC | 1.01
GGGGCACTAT | 1.02
ACACGCGGTC | 1.19
CGGGATCAGC | 0.988
CTGGCTTCC | 2.22
CGAAAATT | 1.02
TAGATTGTCG | 0.966
TTCGTTACCG | 1
CTATTTTATG | 0.98

Sequence | switch fluorescence ratio
CGTTGCTCCT | 0.998
GGCATTGTTA | 0.975
ATGCGCTTCG | 0.965
GCGGGAGGTG | 1.05
ATTGTTATGC | 1.02
AAATGGAAGA | 0.996
ATTAATCGC | 0.996
GCAACAGCA | 1.28
CTCTTTCCTG | 1.02
GTGTGTGTG | 1.01
AGCGGGACCT | 1.15
TATGTTGCGG | 1.01
AATGTGCTTC | 0.954
GCGCTTACGT | 1.1
TAGCGAGTCA | 0.971
CGCGATTTCA | 1.03
GCACGACTTG | 0.98
CGTATAAGTG | 0.965
TTCGTTTT | 1.04
TGATATACAC | 1.05
ATTCGTTTAG | 1.02
ATGATGGAT | 0.947
GTAGTATCTT | 0.991

Sequence | switch fluorescence ratio
GACACCGGCT | 1.05
TAAAGGGCTG | 1.05
TCAGTGTTGG | 0.979
GGAGATTCTG | 1
ACAGGGAATT | 1.01
GTCTTGCGC | 1.01
AGGACGAGAA | 1.02
TTTACGCCAG | 1.01
GGTGGTACCA | 1.04
TAATTTAACC | 1.02
TCTAATTTTT | 0.999
GATGCTATGG | 1.12
CGTCGCGCGC | 1.06
GCATGGGAGG | 0.968
CTTGGCTCGA | 1.01
GCGAAATATA | 1
ATTATTGAGC | 0.99
ATCGCGATG | 0.993
ACTTCGCGTC | 1.32
TATCTGCG | 1.03
GATTGCCGTT | 1.05
CACGTTCTA | 1.02
GGTGGGCCCC | 0.957

Sequence | switch fluorescence ratio
AGTTCGATGG | 0.976
TGAAAGTT | 1.02
TAAGATACCG | 1.09
ACCTGCGGTA | 0.981
ATGATGTCCT | 1.01
GGGGGCTTGC | 0.986
GGCACTAAGG | 1.01
GCATATATTA | 1.01
ATCGATACAT | 1.03
AGCATATTCT | 1.2
CCACTGTCAG | 1.02
CCTTGGTT | 0.987
TTATCGTATC | 1
CACATCCTA | 1.05
GCAGGGAGC | 1.04
TAGAGGCGC | 0.96
ATCAAAAAAT | 0.981
GTTCCCATTA | 0.995
ACGAGCTTTT | 1.05
AGCCGGGGGG | 1.03
TTTCGCCAGT | 1.01
TGTTATTTGG | 0.952
TATACTGGAA | 1.02

Sequence | switch fluorescence ratio
ACTAATTAAT | 1.06
GGTCCCTATT | 0.972
ACTCTAAAGG | 1.12
TGTTTAGGG | 0.977
AAGCGTGCGT | 0.99
CCTGTCAGAT | 1.02
CAATGATCTA | 0.967
ATTAGCCTTC | 1.14
CACGGAAAA | 0.998
TTCCGTTACC | 1.21
TTTTCCCTGT | 1.06
ACGTTCCTTG | 1.19
TGAGATCGT | 0.958
GTGCTACGTT | 1.03
TGGTTCATTT | 1.06
GATAATGTCG | 1.02
GCATAACGAA | 1.07
AGGACGTAAC | 1.37
TGAACGGAAG | 1.06
CAGAGTACAA | 1.04
GACAATATGA | 0.964
GACACCTATC | 1.2
CGGCACAAGC | 1.13

Sequence | switch fluorescence ratio
AGTCACATTC | 1.03
ATTCTGGGAG | 1
TGGTCGGCGA | 1.02
TCTAGTTGCG | 1.03
GGATCGAGTG | 0.991
ATATGTGAAA | 0.978
AGACTCCTGT | 1.01
CATAGTGGCC | 1.03
TTCATATAT | 1.05
TGATATTTAT | 1.01
CGCGCGGTTA | 1.04
ATTCTGTTGG | 0.96
GCTTTACTTG | 1.03
TAGTCTCTTA | 0.989
GCGTTTTCAG | 0.997
ACATAGTGGC | 1.02
CGAACGAT | 1.06
TGGATGTAGT | 0.986
CTAGCATATG | 1.06
GTGACTCTCT | 0.946
TTCCAGTGTG | 1.89
TCGAGGAGCT | 1.06
GCTACAGTTG | 0.959

Sequence | switch fluorescence ratio
AACAGGGGTT | 0.979
TAGTCAACCT | 1.51
AACGGGCATG | 1.04
TTCTACGCAC | 1.63
GCCAGCGTCT | 1.07
TAGTCCCGTT | 0.95
AGGACAGAG | 0.95
TAGATATGGG | 0.965
TCCGAGTAGC | 1.06
TGTCCACGGG | 1.1
GGGCATGCAC | 0.974
ACACGGATTA | 1.06
AAGGGCACCT | 1.05
AACTGGATCA | 1.01
GCAACCTTAC | 2.99
TCAGGTCTTA | 1.05
CGAAACGCGC | 1.05
GCCAACATTG | 0.958
GCAAGGGATG | 1.03
GGCAGTCGG | 0.974

— the supplement of paper PMC10126150
